According to patent US4092420A, “Novel soft N-chloroamino alcohol derivatives exhibiting antibacterial activity” (INTERx Research Corporation, priority 1977, dated 1978):
The name of at least one read-out is uncertain.

Legend:
[1] = tested on: S. aureus; assay: Contact germicidal efficiency (sterilization time); format: cell-based, Staphylococcus aureus
Protocol: (§1) CONTACT GERMICIDAL EFFICIENCY OF
(§2) ^a Time intervals screened 0.5, 1, 2, 3, 4 and 5 minutes.
(§3) ^a Time intervals screened 0.5, 1, 2, 3, 4, 5, 6, 7, 8, 9 and 10
(§4) ^a Time intervals screened 0.5, 1, 2, 3, 4, and 5 minutes.
(§5) ^b Time intervals screened 0.5, 1, 2, 3, 4, 5, 6, 7, 8, 9 and 10
(§6) Immediately preceding the screen, the compound is weighed and diluted with a buffer or other solvent to give the final concentration desired. The buffer or solvent chosen depends on the conditions of the screen and could be one of the following: 0.1 M NaOAc, pH 4.6; 0.1 M NaH2 PO4, pH 7.0; 0.1 M Na2 B4 O7, pH 8.8; 35% methanol in one of the aforementioned buffers; 10% Triton × 100 in buffer, etc.
(§7) The positive chlorine concentration of the test solution is then determined iodometrically.
(§8) Media used for the Screen are Nutrient Broth, BBL# 11479 and Nutrient Agar, BBL# 11472 prepared according to label directions. The broth is dispensed in 75 ml amounts of flasks for overnight cultures and in 5 ml amounts to culture tubes for subculturing during the Screen. Agar plates are prepared as usual.
(§9) Overnight cultures are prepared by inoculating from stock cultures into the 75 ml flasks of nutrient broth and incubating for 15 hours at 37° C.
(§10) The iodometrically characterized test solution is dispensed in 5 ml amounts to seven small stoppered flasks. The organisms are screened one at a time as follows:
(§11) A 0.2 ml portion of the overnight culture is inoculated into 5 ml of 0.9% NaCl for use in controls. A 0.2 ml portion of the overnight culture is inoculated into a flask containing 5 ml of the test solution, an automatic timer is simultaneously triggered and the solution mixed. At time intervals of 30 seconds, 1, 2, 3, 4, 5, 6, 7, 8, 9, and 10 minutes a loopful of the inoculated solution is subcultured into 5 ml of sterile nutrient broth and mixed by a Vortex Genie Mixer, the high dilution serving to stop the action of the compound. At the end of the ten minute screen, the entire procedure is repeated for each of the remaining six organisms. All of the subculture tubes are incubated at 37° C and checked for signs of growth by turbidity at 24 hr., 48 hr., 3, 5, and 7 days. The earliest subculture time at which no growth is present in the subculture tube is considered the endpoint and is recorded as that time, e.g., 7 minutes.
(§12) Before a buffer or other solvent is used as the diluent, it is screened against the organisms Staphylococcus aureus, ATCC# 6538 and Escherichia coli ATCC# 10536 (the `strongest` and `weakest` of the organisms) to insure that the buffer or solvent has no antibacterial activity in itself. Subculture times of 10, 20 and 30 minutes are used. Incubation conditions are the same.
(§13) The test solution is prepared and characterized as above but is made up at twice the concentration desired. The solution is diluted 1:1 with Rehydrated Tissue Culture Dessicated Horse Serum, Difco #5357-72 and dispensed in a 5 ml amount to a small flask. The mixture is incubated at Room Temperature for 30 minutes to allow denaturation of the compound by the serum and then screened as above.
(§14) The 5 ml mixture of serum and test solution are prepared in sequence to allow as close to 30 minutes as possible before the beginning of the screen of each organism.
(§15) Bacteria: Staphylococcus aureas Smith (or 209), Escherichia coli AB 1932-1, 1100/B22 and Vogel, Streptococcus pyogenes C203 Salmonella typhimurium 14028, Bacillus subtilis 6051-1, Klebsiella pneumoniae 10031, Pseudomonas aeruginosa 9027, Bordetella bronchiseptica 4617 and Staphylococcus epidermidis 12228.

[2] = tested on: E. coli; assay: Contact germicidal efficiency (sterilization time); format: cell-based, Escherichia coli
Protocol: as §1, §2, §3, §4, §5, §6, §7, §8, §9, §10, §11, §12, §13, §14, §15

[3] = Example W, 30% methanol: 0.1 M sodium dihydrogen phosphate, pH 7.0, at the concentration listed per compound (E14/E15)
[4] = Example X, pH 4.6, no horse serum, IV c 404 ppm (69 PPMCl+), IV g 489 ppm (143 PPMCl+)
[5] = Example X, pH 7.0, no horse serum, IV c 1886 ppm (323 PPMCl+), IV g 409 ppm (120 PPMCl+)
[6] = Example X, pH 9.3, no horse serum, IV c 1704 ppm (292 PPMCl+), IV g 319 ppm (94 PPMCl+)
[7] = Example Z, pH 4.6, absence of horse serum, IV j 79 ppm (21 PPMCl+), IV k 5800 (1057), IV l 1112 (209)

Structure (SMILES) | Sterilization Time [1, 3] [min] | Sterilization Time [2, 3] [min] | other results
CCCC(=O)OCC(C)(C)N.Cl [III b, 2-Amino-2-methyl-1-propyl butyrate hydrochloride] | > 60 | > 60 | –
CCCCCC(=O)OCC(C)(C)N.Cl [III d, 2-Amino-2-methyl-1-propyl hexanoate hydrochloride] | > 60 | > 60 | –
CC(C)(COC(=O)C(C)(C)C)NCl [IV c, 2-N-Chloroamino-2-methyl-1-propyl 2,2-dimethylproprionate] | 5 | 0.5 | Sterilization Time [1, 4]: 1 min; Sterilization Time [1, 5]: 4 min; Sterilization Time [1, 6]: 3 min; Sterilization Time [2, 4]: 0.5 min; Sterilization Time [2, 5]: 0.5 min; Sterilization Time [2, 6]: 1 min
CCCCCCCC(=O)OCC(C)(C)NCl [IV e, 2-N-Chloroamino-2-methyl-1-propyl octanoate] | 10 | 5 | –
CC(=O)OCC(C)(C)N(Cl)Cl [IV a, 2-N,N-Dichloroamino-2-methyl-1-propyl acetate] | 5 | 0.5 | –
CCCCCC(=O)OCC(C)(C)N(Cl)Cl [IV h, 2-N,N-Dichloroamino-2-methyl-1-propyl hexanoate] | 10 | 10 | –
C[n+]1cccc(C(=O)OCC(C)(C)N(Cl)Cl)c1 [IV l, 2-N,N-Dichloroamino-2-methyl-1-propyl nicotinate methylfluorosulfonate] | – | – | Sterilization Time [1, 7]: 5 min; Sterilization Time [2, 7]: 1 min
CC(C)(COC(=O)c1cccnc1)N(Cl)Cl [IV j, 2-N,N-Dichloroamino-2-methyl-1-propyl nicotinate] | – | – | Sterilization Time [1, 7]: 5 min; Sterilization Time [2, 7]: 2 min
CCCC(=O)OCC(C)(C)NCl [IV b, 2-N-Chloroamino-2-methyl-1-propyl butyrate] | 2.5 | 0.5 | –
CCCCCC(=O)OCC(C)(C)NCl [IV d, 2-N-Chloroamino-2-methyl-1-propyl hexanoate] | 2.5 | 2.5 | –
C[n+]1cccc(C(=O)OCC(C)(C)N(Cl)Cl)c1 [IV k, 2-N,N-Dichloroamino-2-methyl-1-propyl nicotinate methylsulfate] | – | – | Sterilization Time [1, 7]: 5 min; Sterilization Time [2, 7]: 1 min
CCCCCCCC(=O)OCC(C)(C)N(Cl)Cl [IV i, 2-N,N-Dichloroamino-2-methyl-1-propyloctanoate] | 15 | 10 | –
CC(C)(C)C(=O)OCC(C)(C)N(Cl)Cl [IV g, 2-N,N-Dichloroamino-2-methyl-1-propyl 2,2-dimethylproprionate] | 5 | 2.5 | Sterilization Time [1, 4]: 2 min; Sterilization Time [1, 5]: 4 min; Sterilization Time [1, 6]: 2 min; Sterilization Time [2, 4]: 0.5 min; Sterilization Time [2, 5]: 1 min; Sterilization Time [2, 6]: 1 min
CCCCCCCC(=O)OCC(C)(C)N.Cl [III e, 2-Amino-2-methyl-1-propyl octanoate hydrochloride] | > 60 | 15 | –
CCCC(=O)OCC(C)(C)N(Cl)Cl [IV f, 2-N,N-Dichloroamino-2-methyl-1-propyl butyrate] | 2.5 | 0.5 | –
